Measurements: patent US12458818B2, “Anti-trophoblast cell surface antigen 2 (TROP2) antibodies and antibody drug conjugates comprising same” (CSPC MEGALITH BIOPHARMACEUTICAL CO., LTD., priority 2019, dated 2025)

How the values were obtained:
HCC1954 = assay: In vitro cytotoxicity assay, HCC1954; type: cell-based; details: HCC1954 human breast carcinoma cell line
Procedure: (§1) DP002-HC1LC1-ADC is an antibody-drug conjugate comprising anti-TROP antibody DP002-HC1LC1, which comprises HCl (SEQ ID NO: 52) and LC 1 (SEQ ID NO: 58), conjugated to monomethyl auristatin E (MMAE) at a drug-antibody ratio (DAR) of 2. A DP002-HC1LC1-ADC was prepared using a conjugation method described in WO 2015/191883. A series of in vitro cytotoxicity assays were performed to assess the ability of DP002-HC1LC1-ADC to inhibit the growth of the following TROP2 expressing cancer cell lines: HCC1954 (a human breast carcinoma cell line), BxPC-3 (a human pancreatic adenocarcinoma cell line), and NCI-N87 (a human gastric carcinoma cell line). Experiments using staurospirone, a positive apoptosis control, and anti-TROP2 antibody DP002-HC4LC5, which comprises HC4 (SEQ ID NO: 55) and LC5 (SEQ ID NO: 62), were performed in parallel.

[1] = Body weight and tolerability in xenografted nude mice (Example 4); type: in vivo, mouse; details: 4 mg/kg IV once on Day 0
Procedure: (§2) Each mouse was inoculated with 5×10^6 MDA-MB-468 tumor cells (in 0.1 mL, 1:1 with Matrigel) at the right flank by subcutaneous administration under sterile conditions. When the tumors reached a volume of ˜150 mm^3, mice were randomized into one of 7 treatment groups (6 mice per group), as outlined in Table 12, and treatments began. All doses of DP002-HC4LC5-ADC were administered by intravenous injection via tail vein injection.
(§3) Tumor size and animal body weight were measured twice per week. Clinical signs were recorded daily. Tumors were measured using a caliper in two dimensions (i.e., length (a) and width (b)), and tumor volumes were estimated from measurements of the two diameters of the individual tumors as follows: Tumor Volume (mm^3)=(a×b^2)/2.
(§4) Average tumor growth curves for each treatment group were plotted with the observation time on the X-axis, and corresponding tumor volume (geometric mean) on the Y-axis. A two-tailed t-test was used to analyze the statistical significance of any differences between the treatment groups and the control group. Tumor Growth Inhibition (TGI) was calculated after each tumor volume measurement according to the formula: % TGI=(TVcn−TVtn)/TVcn×100, where TVtn and TVcn are the mean tumor Volume of treated and control groups, respectively. Body weight change (CBW %) was calculated after each body weight measurement according to the formula: CBW %=(BWn−BW0)/BW0×100, where BWn is the body weight at day n and BW0 is the body weight at day 0 respectively.

[2] = system: xenografted MDA-MB-468 human breast adenocarcinoma tumors; assay: MDA-MB-468 xenograft efficacy in female nude mice (Example 4); type: in vivo, mouse; details: 4 mg/kg IV once on Day 0
Procedure: The anti-tumor activity of DP002-HC4LC5-ADC was evaluated as a single agent in female nude mice bearing xenografted MDA-MB-468 human breast adenocarcinoma tumors.
as §2, §3, §4

[3] = system: human MDA-MB-468 breast adenocarcinoma tumor xenografts; assay: MDA-MB-468 xenograft efficacy in NOD/SCID mice (Example 3); type: in vivo, mouse; details: single dose on Day 0; for T/C (%) / TGI (%): Day 42
Procedure: (§5) The efficacies of two anti-TROP2-MMAE antibody drug conjugates, DP002-HC1LC5-ADC (DAR ˜2) and DP002-HC4LC5-ADC (DAR ˜1.6-2.3), in inhibiting tumor growth in mice bearing human MDA-MB-468 breast adenocarcinoma tumor xenografts were tested. DP002-HC1LC5-ADC comprises an anti-TROP antibody that comprises HC 1 (SEQ ID NO: 52) and LC5 (SEQ ID NO: 62); DP002-HC4LC5-ADC comprises an anti-TROP antibody that comprises HC 4 (SEQ ID NO: 44) and LC5 (SEQ ID NO: 62). Briefly, 48 NOD/SCID mice (female, 6-8 weeks of age) were implanted with 0.1 ml MDA-MB-468 cells (lx 10^7 cell/ml). When the tumors sizes reached above 181 mm^3 (34 days after tumor inoculation), the mice were sorted randomly into 7 groups (6 mice/group) and treated according to the schedule provided in Table 10 below: […]

human TROP2 [4] = target: T1, human TROP2 (Homo sapiens, UniProt P09758); assay: SPR affinity ranking of humanized antibodies (Table 8C); type: binding
T1 sequence (P09758 27-323): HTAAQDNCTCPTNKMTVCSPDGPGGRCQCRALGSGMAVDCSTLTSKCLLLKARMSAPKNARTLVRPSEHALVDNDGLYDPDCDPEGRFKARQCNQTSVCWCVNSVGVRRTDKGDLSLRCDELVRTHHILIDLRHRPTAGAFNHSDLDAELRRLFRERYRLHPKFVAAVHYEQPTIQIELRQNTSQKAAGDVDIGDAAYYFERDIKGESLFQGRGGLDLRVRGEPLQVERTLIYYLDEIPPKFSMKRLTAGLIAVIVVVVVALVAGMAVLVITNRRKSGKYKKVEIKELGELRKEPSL

NCI-N87 = assay: In vitro cytotoxicity assay, NCI-N87; type: cell-based; details: NCI-N87 human gastric carcinoma cell line
Procedure: as §1

BxPC-3 = assay: In vitro cytotoxicity assay, BxPC-3; type: cell-based; details: BxPC-3 human pancreatic adenocarcinoma cell line
Procedure: as §1

human TROP2 [5] = target: T1, human TROP2; assay: Surface plasmon resonance kinetics and affinities (Table 8B); type: binding; details: SPR, analyte TROP2
Procedure: Surface plasmon resonance (SPR) experiments were performed to determine the kinetics and affinities of certain antibodies shown in Table 8A.

HCC38 = assay: In vitro cytotoxicity assay, HCC38; type: cell-based; details: HCC38 TROP2+ human mammary ductal carcinoma cell line
Procedure: Additional in vitro cytotoxicity assays were performed to test the ability of DP002-HC1LC1-ADC to inhibit the growth of MDA-MB-468 (a TROP2^+ human breast adenocarcinoma cell line) and HCC38 (a TROP2^+ human mammary ductal carcinoma cell line).

[6] = Side effects in xenografted NOD/SCID mice (Example 3); type: in vivo, mouse; details: 1 mg/kg or 4 mg/kg intravenous, single dose on Day 0
Procedure: as §5

B1: HC4/LC5 (antibody)
heavy: QVQLVQSGAEVKKPGSSVKVSCKASGYTFTDYSINWVRQAPGQGLEWMGVISTYYGDASYNQKFKGRVTITADESTSTAYMELSSLRSEDTAVYYCARYGDGYNQFDYWGQGTLVTVSS[human IgG1 constant region cut from this listing]
light: DIQMTQSPSSLSASVGDRVTITCRVSESVDSYGNNFMHWYQQKPGKAPKLLIYRASNLESGVPSRFSGSGSGTDFTFTISSLQPEDIATYYCQQSYEDPYTFGGGTKLEIKRTVAAPSVFIFPPSDEQLKSGTASVVCLLNNFYPREAKVQWKVDNALQSGNSQESVTEQDSKDSTYSLSSTLTLSKADYEKHKVYACEVTHQGLSSPVTKSFNRGEC
Max % inhibition (HCC1954): little to no activity | Max % inhibition (HCC1954; listed as DP002HC4LC5): 2.28% | Body Weight (g, Mean ± SEM) Day 70 [1]: 21.03 ± 0.58 g | Body Weight (g, Mean ± SEM) Day 84 [1]: 22.90 ± 0.70 g | Drug-related Death [1]: 0 | average body weight increase (%) on Day 84 compared to Day 0 [1]: 17.79% | average body weight increase on Day 70 compared to Day 0 [1]: 1.78 g | average body weight increase on Day 84 compared to Day 0 [1]: 3.65 g | BWC (%) Day 70 (body weight change vs Day 0) ([1]; listed as DP002-HC4LC5): 9.31% | % TGI Day 70 [2]: 8.32% | Tumor Volume (mm^3, Mean ± SEM) Day 70 [2]: 1249.79 ± 70.34 mm^3 | Tumor Weight (g, Mean ± SEM) Day 84 [2]: 1.710 ± 0.058 g | tumor inhibition effect [2]: did not possess significant tumor inhibition effects | Tumor Weight (g, Mean ± SEM) Day 70 ([2]; animals euthanized Day 70): 1.032 ± 0.073 g | Number of mice demonstrating full tumor regression at Week 4 following first dose ([2]; n = 6 unless specified): 0 | Number of mice demonstrating full tumor regression at Week 5 following first dose ([2]; n = 6 unless specified): 0 | Number of mice demonstrating full tumor regression at Week 6 following first dose ([2]; n = 6 unless specified): 0 | Number of mice demonstrating full tumor regression at Week 7 following first dose ([2]; n = 6 unless specified): 0 | Number of mice demonstrating full tumor regression at Week 8 following first dose ([2]; n = 6 unless specified): 0 | Number of mice demonstrating full tumor regression at Week 9 following first dose ([2]; n = 6 unless specified): 0 | Number of mice demonstrating full tumor regression at Week 10 following first dose ([2]; n = 6 unless specified): 0 | Number of mice demonstrating full tumor regression at Week 11 following first dose ([2]; n = 6 unless specified): 0 (n = 2) | Number of mice demonstrating full tumor regression at Week 12 following first dose ([2]; n = 6 unless specified): 0 (n = 2) | Tumor Size (mm^3) at Day 42, mean ± SEM ([3]; 4 mg/kg intravenous): 742 ± 74 mm^3 | T/C (%) ([3]; 4 mg/kg intravenous): 102% | TGI (%) ([3]; 4 mg/kg intravenous, listed as DP002-HC4LC5, 4 mg/kg): −2% | TGI (%) ([3]; 4 mg/kg intravenous, listed as antibody control, 4 mg/kg): did not have any effect on tumor growth | Ka (human TROP2 [4]): 1.72e+06 M⁻¹ s⁻¹ | Kd (1/s) (human TROP2 [4]): 0.000138 s⁻¹ | Rmax (RU) (human TROP2 [4]): 49.9 RU | Max % inhibition (NCI-N87): little to no activity | Max % inhibition (NCI-N87; listed as DP002HC4LC5): 7.07% | Max % inhibition (BxPC-3): little to no activity | Max % inhibition (BxPC-3; listed as DP002HC4LC5): 2.95% | Rmax (human TROP2 [5]): 50.7 | ka (human TROP2 [5]): 2.2e+06 M⁻¹ s⁻¹ | kd (human TROP2 [5]): 4.05e-05 s⁻¹

B2: DP002-HC1LC1-ADC (conjugate)
heavy: QVQLVQSGAEVKKPGASVKVSCKASGYTFTDYSINWVRQAPGQGLEWMGVISTYYGDASYNQKFKGRVTMTTDTSTSTAYMELRSLRSDDTAVYYCARYGDGYNQFDYWGQGTMVTVSS[human IgG1 constant region cut from this listing]
light: DIVMTQSPDSLAVSLGERATINCRVSESVDSYGNNFMHWYQQKPGQPPKLLIYRASNLESGVPDRFSGSGSGTDFTLTISSLQAEDVAVYYCQQSYEDPYTFGQGTKLEIKRTVAAPSVFIFPPSDEQLKSGTASVVCLLNNFYPREAKVQWKVDNALQSGNSQESVTEQDSKDSTYSLSSTLTLSKADYEKHKVYACEVTHQGLSSPVTKSFNRGEC
modifications: conjugated to monomethyl auristatin
Max % inhibition (HCC38): 22.56%

B3: DP002-HC1LC5-ADC: anti-TROP2-MMAE antibody drug conjugate (DAR ~2) of antibody with HC1 (SEQ ID NO: 52) and LC5 (SEQ ID NO: 62) (conjugate)
heavy: QVQLVQSGAEVKKPGASVKVSCKASGYTFTDYSINWVRQAPGQGLEWMGVISTYYGDASYNQKFKGRVTMTTDTSTSTAYMELRSLRSDDTAVYYCARYGDGYNQFDYWGQGTMVTVSS[human IgG1 constant region cut from this listing]
light: DIQMTQSPSSLSASVGDRVTITCRVSESVDSYGNNFMHWYQQKPGKAPKLLIYRASNLESGVPSRFSGSGSGTDFTFTISSLQPEDIATYYCQQSYEDPYTFGGGTKLEIKRTVAAPSVFIFPPSDEQLKSGTASVVCLLNNFYPREAKVQWKVDNALQSGNSQESVTEQDSKDSTYSLSSTLTLSKADYEKHKVYACEVTHQGLSSPVTKSFNRGEC
modifications: MMAE conjugate, DAR ~2
Tumor Size (mm^3) at Day 42, mean ± SEM ([3]; 1 mg/kg intravenous): 583 ± 49 mm^3 | Tumor Size (mm^3) at Day 42, mean ± SEM ([3]; 4 mg/kg intravenous): 0 ± 0 mm^3 | average tumor volume on Day 56 ([3]; 4 mg/kg intravenous): 0 mm^3 | T/C (%) ([3]; 1 mg/kg intravenous): 77% | TGI (%) ([3]; 1 mg/kg intravenous): 23% | T/C (%) ([3]; 4 mg/kg intravenous): 0% | side effects based on changes in body weight, survival and gross observations [6]: No obvious side effects
